This is one part of the list.
Tests used:
Assay in all cases: glycan array binding signal (z-score within array); higher = stronger binding
Conditions in all cases: glycan notation: IUPAC condensed, linker removed
[1] = biological target: Gal(b1-3)GlcNAc(a1-6)Gal(b1-4)GlcNAc
How it was run: (§1)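 Glycan array binding is given as a within-array Z-score, which can be read as non-binding when negative. The arrays, 3228 of them, came from the Consortium for Functional Glycomics database and were retained only where the protein sequence was available. Z-scores were averaged across arrays of the same protein sequence at different concentrations or buffers and across linkers.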

Gal(b1-3)GlcNAc(b1-2)Man = biological target: Gal(b1-3)GlcNAc(b1-2)Man
How it was run: as §1

[2] = biological target: Gal(b1-3)GlcNAc(b1-2)Man(a1-3)[Gal(b1-3)GlcNAc(b1-2)Man(a1-6)]Man(b1-4)GlcNAc(b1-4)GlcNAc
How it was run: as §1

[3] = biological target: Gal(b1-3)GlcNAc(b1-2)Man(a1-3)[Gal(b1-3)GlcNAc(b1-2)Man(a1-6)]Man(b1-4)GlcNAc(b1-4)[Fuc(a1-6)]GlcNAc
How it was run: as §1

[4] = biological target: Gal(b1-3)GlcNAc(b1-2)Man(a1-3)[GlcNAc(b1-4)][Gal(b1-3)GlcNAc(b1-2)Man(a1-6)]Man(b1-4)GlcNAc(b1-4)GlcNAc
How it was run: as §1

[5] = biological target: Gal(b1-3)GlcNAc(b1-2)[Gal(b1-3)GlcNAc(b1-6)]Man(a1-6)[Gal(b1-3)GlcNAc(b1-2)Man(a1-3)]Man(b1-4)GlcNAc(b1-4)GlcNAc
How it was run: as §1

[6] = biological target: Gal(b1-3)GlcNAc(b1-3)Gal(b1-3)GlcNAc
How it was run: as §1

[7] = biological target: Gal(b1-3)GlcNAc(b1-3)Gal(b1-4)Glc
How it was run: as §1

[8] = biological target: Gal(b1-3)GlcNAc(b1-3)Gal(b1-4)GlcNAc
How it was run: as §1

[9] = biological target: Gal(b1-3)GlcNAc(b1-3)Gal(b1-4)GlcNAc(b1-2)Man(a1-3)[Gal(b1-3)GlcNAc(b1-3)Gal(b1-4)GlcNAc(b1-2)Man(a1-6)]Man(b1-4)GlcNAc(b1-4)GlcNAc
How it was run: as §1

[10] = biological target: Gal(b1-3)GlcNAc(b1-3)Gal(b1-4)GlcNAc(b1-2)[Gal(b1-3)GlcNAc(b1-3)Gal(b1-4)GlcNAc(b1-6)]Man(a1-6)[Gal(b1-3)GlcNAc(b1-3)Gal(b1-4)GlcNAc(b1-2)Man(a1-3)]Man(b1-4)GlcNAc(b1-4)[Fuc(a1-6)]GlcNAc
How it was run: as §1

[11] = biological target: Gal(b1-3)GlcNAc(b1-3)Gal(b1-4)GlcNAc(b1-3)Gal(b1-4)GlcNAc(b1-2)[Gal(b1-3)GlcNAc(b1-3)Gal(b1-4)GlcNAc(b1-3)Gal(b1-4)GlcNAc(b1-6)]Man(a1-6)[Gal(b1-3)GlcNAc(b1-3)Gal(b1-4)GlcNAc(b1-3)Gal(b1-4)GlcNAc(b1-2)Man(a1-3)]Man(b1-4)GlcNAc(b1-4)[Fuc(a1-6)]GlcNAc
How it was run: as §1

[12] = biological target: Gal(b1-3)GlcNAc(b1-3)Gal(b1-4)GlcNAc(b1-6)[Gal(b1-3)GlcNAc(b1-3)]Gal(b1-4)Glc
How it was run: as §1

[13] = biological target: Gal(b1-3)GlcNAc(b1-3)Gal(b1-4)[Fuc(a1-3)]GlcNAc
How it was run: as §1

[14] = biological target: Gal(b1-3)GlcNAc(b1-3)Gal(b1-4)[Fuc(a1-3)]GlcNAc(b1-6)[Gal(b1-3)GlcNAc(b1-3)]Gal(b1-4)Glc
How it was run: as §1

[15] = biological target: Gal(b1-3)GlcNAc(b1-3)GalNAc
How it was run: as §1

[16] = biological target: Gal(b1-3)GlcNAc(b1-6)Gal(b1-4)GlcNAc
How it was run: as §1

[17] = biological target: Gal(b1-3)GlcNAc(b1-6)GalNAc
How it was run: as §1

[18] = biological target: Gal(b1-3)GlcNAc(b1-6)[Gal(b1-3)]GalNAc
How it was run: as §1

Gal(b1-3)GlcNAc6S = biological target: Gal(b1-3)GlcNAc6S
How it was run: as §1

[19] = biological target: Gal(b1-3)[Fuc(a1-4)]GlcNAc
How it was run: as §1

[20] = biological target: Gal(b1-3)[Fuc(a1-4)]GlcNAc(b1-2)Man
How it was run: as §1

[21] = biological target: Gal(b1-3)[Fuc(a1-4)]GlcNAc(b1-2)Man(a1-3)[Gal(b1-3)[Fuc(a1-4)]GlcNAc(b1-2)Man(a1-6)]Man(b1-4)GlcNAc(b1-4)[Fuc(a1-6)]GlcNAc
How it was run: as §1

[22] = biological target: Gal(b1-3)[Fuc(a1-4)]GlcNAc(b1-3)Gal(b1-3)[Fuc(a1-4)]GlcNAc
How it was run: as §1

[23] = biological target: Gal(b1-3)[Fuc(a1-4)]GlcNAc(b1-3)Gal(b1-4)GlcNAc
How it was run: as §1

[24] = biological target: Gal(b1-3)[Fuc(a1-4)]GlcNAc(b1-3)Gal(b1-4)[Fuc(a1-3)]GlcNAc
How it was run: as §1

[25] = biological target: Gal(b1-3)[Fuc(a1-4)]GlcNAc(b1-6)GalNAc
How it was run: as §1

[26] = biological target: Gal(b1-3)[GlcNAc(b1-6)]GalNAc
How it was run: as §1

[27] = biological target: Gal(b1-3)[GlcNAc(b1-6)]GlcNAc
How it was run: as §1

[28] = biological target: Gal(b1-3)[Neu5Ac(a2-6)]GalNAc
How it was run: as §1

[29] = biological target: Gal(b1-3)[Neu5Ac(a2-6)]GlcNAc
How it was run: as §1

[30] = biological target: Gal(b1-3)[Neu5Ac(a2-6)]GlcNAc(a1-4)Gal(b1-4)Glc
How it was run: as §1

[31] = biological target: Gal(b1-3)[Neu5Ac(a2-6)]GlcNAc(b1-4)Gal(b1-4)Glc
How it was run: as §1

[32] = biological target: Gal(b1-3)[Neu5Ac(a2-6)]GlcNAc(b1-6)Gal(b1-4)Glc
How it was run: as §1

[33] = biological target: Gal(b1-3)[Neu5Ac(b2-6)]GalNAc
How it was run: as §1

[34] = biological target: Gal(b1-3)[Neu5Ac(b2-6)]GlcNAc
How it was run: as §1

Gal(b1-4)Gal = biological target: Gal(b1-4)Gal
How it was run: as §1

[35] = biological target: Gal(b1-4)GalNAc(a1-3)[Fuc(a1-2)]Gal(b1-4)GlcNAc
How it was run: as §1

[36] = biological target: Gal(b1-4)GalNAc(b1-3)[Fuc(a1-2)]Gal(b1-4)GlcNAc
How it was run: as §1

Gal(b1-4)Glc = biological target: Gal(b1-4)Glc
How it was run: as §1

Gal(b1-4)Glc6S = biological target: Gal(b1-4)Glc6S
How it was run: as §1

Gal(b1-4)GlcNAc = biological target: Gal(b1-4)GlcNAc
How it was run: as §1

[37] = biological target: Gal(b1-4)GlcNAc(a1-6)Gal(b1-4)GlcNAc
How it was run: as §1

Gal(b1-4)GlcNAc(b1-2)Man = biological target: Gal(b1-4)GlcNAc(b1-2)Man
How it was run: as §1

[38] = biological target: Gal(b1-4)GlcNAc(b1-2)Man(a1-3)Man(b1-4)GlcNAc(b1-4)GlcNAc
How it was run: as §1

B1: EEA (Euonymus europaeus) (protein)
chain: MASTIIATGPTYRVYCRAAPNYNMIVGKGVAFLAPIDETNELQYWYKDDTYSYIKDEAGLPAFSLVNKATGLTLKHSNHHPVPVKLVTYNPNVVDESVLWSQADDRGDGYSAIRSLTNPASHLEAAPLNDWSYNGAIIMGGVWIDAYNQQWKIEPHTG
glycan array binding signal (z-score) [1]: -0.083
glycan array binding signal (z-score) (Gal(b1-3)GlcNAc(b1-2)Man): -0.143
glycan array binding signal (z-score) [2]: -0.157
glycan array binding signal (z-score) [3]: -0.194
glycan array binding signal (z-score) [4]: -0.234
glycan array binding signal (z-score) [5]: -0.219
glycan array binding signal (z-score) [6]: -0.138
glycan array binding signal (z-score) [7]: -0.273
glycan array binding signal (z-score) [8]: -0.237
glycan array binding signal (z-score) [9]: -0.243
glycan array binding signal (z-score) [10]: 0.041
glycan array binding signal (z-score) [11]: -0.049
glycan array binding signal (z-score) [12]: -0.258
glycan array binding signal (z-score) [13]: -0.197
glycan array binding signal (z-score) [14]: -0.274
glycan array binding signal (z-score) [15]: -0.173
glycan array binding signal (z-score) [16]: -0.231
glycan array binding signal (z-score) [17]: -0.212
glycan array binding signal (z-score) [18]: -0.187
glycan array binding signal (z-score) (Gal(b1-3)GlcNAc6S): -0.224
glycan array binding signal (z-score) [19]: -0.228
glycan array binding signal (z-score) [20]: -0.125
glycan array binding signal (z-score) [21]: -0.037
glycan array binding signal (z-score) [22]: -0.168
glycan array binding signal (z-score) [23]: -0.258
glycan array binding signal (z-score) [24]: -0.072
glycan array binding signal (z-score) [25]: -0.142
glycan array binding signal (z-score) [26]: -0.15
glycan array binding signal (z-score) [27]: -0.229
glycan array binding signal (z-score) [28]: -0.159
glycan array binding signal (z-score) [29]: -0.289
glycan array binding signal (z-score) [30]: -0.226
glycan array binding signal (z-score) [31]: -0.254
glycan array binding signal (z-score) [32]: -0.302
glycan array binding signal (z-score) [33]: -0.22
glycan array binding signal (z-score) [34]: -0.268
glycan array binding signal (z-score) (Gal(b1-4)Gal): -0.21
glycan array binding signal (z-score) [35]: -0.227
glycan array binding signal (z-score) [36]: -0.213
glycan array binding signal (z-score) (Gal(b1-4)Glc): -0.146
glycan array binding signal (z-score) (Gal(b1-4)Glc6S): -0.19
glycan array binding signal (z-score) (Gal(b1-4)GlcNAc): -0.144
glycan array binding signal (z-score) [37]: -0.19
glycan array binding signal (z-score) (Gal(b1-4)GlcNAc(b1-2)Man): -0.174
glycan array binding signal (z-score) [38]: -0.282
